Hit rate of the full screen: of about 420,000 compounds, about 50,000 (12%) were called active. The shares of active, inactive and inconclusive entries below differ from those in the screen. Calls follow the shape of the dose curve; as a rule, active = well fitted inhibition curve with a large enough effect; inconclusive = small, poorly fitted or top-dose-only effect; inactive = flat fitted curve, though single readings scatter. No potency is given beside an inconclusive call; the fits are too rough.
Assay: qHTS for Inhibitors of human tyrosyl-DNA phosphodiesterase 1 (TDP1): qHTS in cells in presence of CPT; also: nearly all actives have a fitted effect of over 55% in size
Settings: chicken DT40 Tdp1-/-;hTDP1 cells + 20 nM CPT, ATP luminescence, 48 h; activity change, negative = growth inhibition: at 46.2 µM (top of the series) unless noted
Procedure, shortened: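 Chicken DT40 Tdp1-/- cells stably complemented with human TDP1 were seeded at 400 cells/well in medium containing 20 nM camptothecin, exposed to pin-transferred compounds, and grown at 37 °C for at least 48 hr. Viability was read as ATP luminescence.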
With `COc1cc(CN2CCCCCC2)c([N+](=O)[O-])cc1OC` the “activity change, negative = growth inhibition” value was inactive: 3.45%.
In the case of `CCc1ccc(NC(=O)CSc2nnc(CNC(=O)c3c(F)cccc3Cl)o2)cc1`, the “activity change, negative = growth inhibition” value was inactive: 7.75%.
With `O=C(NC(=S)Nc1ccc(S(=O)(=O)Nc2nccs2)cc1)c1ccccc1F` the Potency was inconclusive [inhibitor, single point].
For `CNC(=O)c1cccc(NC(=O)c2cc(-c3ccccc3)nc3c2cnn3C(C)C)c1`, the Potency was inconclusive [inhibitor, single point].
With `CC(C)(CNC(=O)c1sc2cc(F)ccc2c1Cl)N1CCOCC1` the Potency was inconclusive [inhibitor, single point].
With `CCOC(=O)Cc1csc(NC(=O)c2cccc([N+](=O)[O-])c2)n1` the Potency was inconclusive [inhibitor, single point].
In the case of `CC(C)Cc1ccc(C(C)C(=O)Nc2nccs2)cc1` (centres undefined), the Potency was inconclusive [inhibitor, partial curve].
For `Cc1cc(C)n(-c2ncnc3sc(C)c(C)c23)n1`, the “activity change, negative = growth inhibition” value was inactive: 4.7%.
In the case of `CCCc1cc(=O)[nH]c(SCC(=O)NC2CCCCCCC2)n1`, the Potency was inconclusive [inhibitor, single point].
For `COc1ccc(CN2CCOc3c(cc(-c4ccc(OC)nn4)cc3OC)C2)c(O)c1`, the “activity change, negative = growth inhibition” value was inactive: -9.24%.
In the case of `O=C(CC1CCCCC1)NCCOc1ccccc1`, the Potency was inconclusive [inhibitor, single point].
With `Cc1ccc(SCc2nc(-c3ccc(C(=O)NCc4ccccc4Cl)cc3)oc2C)cc1` the Potency was active: 8.2 µM.
In the case of `Cc1ccc(OCc2nnc(SCc3ccc(C#N)cc3)n2-c2ccc(C)cc2)cc1`, the Potency was inconclusive [inhibitor, single point].
With `COc1cccc(CNC(=O)CN(c2ccc(C(C)C)cc2)S(=O)(=O)c2c(C)n[nH]c2C)c1` the Potency was active: 16.4 µM.
With `Cn1c(=O)c(=O)n(C)c2cc(N3CCCC3)c(NC(=O)c3ccc(C(C)(C)C)cc3)cc21` the Potency was inconclusive [inhibitor, single point].
In the case of `CC1=C(C(=O)OCc2ccc3nsnc3c2)N2C(=O)[C@@H](NC(=O)OCc3ccc4nsnc4c3)[C@H]2SC1`, the Potency was inconclusive [inhibitor, single point].
In the case of `Cc1ccc(S(=O)(=O)NC(=O)C2(C)CCN2C(=O)c2c(C)noc2C)cc1` (centres undefined), the “activity change, negative = growth inhibition” value was inactive: 4.02%.
For `CC[n+]1cccc(-c2nc3ccccc3s2)c1`, the Potency was inconclusive [inhibitor, partial curve, poor fit].
With `OCC1(Cc2ccccc2)CCN(C2CCN(c3ccc(F)c(F)c3)CC2)CC1` the “activity change, negative = growth inhibition” value was inactive: -28.8%.
In the case of `CCOC(=O)CC(=O)CSc1nc2ccccc2c(=O)n1CCc1ccccc1`, the Potency was inconclusive [inhibitor, single point].
For `O=S(=O)(NCc1ccc2c(c1)OCO2)c1ccc2oc3ccccc3c2c1`, the Potency was inconclusive [inhibitor, full curve].
In the case of `Cc1ccc(S(=O)(=O)n2c([N+](=O)[O-])cnc2C)c(C)c1C`, the Potency was inconclusive [inhibitor, single point].
With `COc1cc2c(cc1OC)C(C)N(C(=O)C(NC(=O)c1ccccc1)C(C)C)CC2` (centres undefined) the Potency was inconclusive [inhibitor, single point].
With `COc1cccc(-c2nnc3n(CCc4ccccc4)c(=O)c4ccccc4n23)c1O` the Potency was inconclusive [inhibitor, single point].
For `Cc1cc([N+](=O)[O-])nn1CC(=O)NNC(=S)Nc1ccc(F)cc1`, the “activity change, negative = growth inhibition” value was inactive: -6.92%.
With `Cc1cccc(NC(=O)c2oc3ccc(S(=O)(=O)N4CCOCC4)cc3c2C)c1C` the Potency was inconclusive [inhibitor, single point].
In the case of `CCc1ccc(NC(=O)C2CCN(S(=O)(=O)c3c(C)noc3/C=C/c3cccs3)CC2)cc1`, the Potency was inconclusive [inhibitor, partial curve].
For `CCC(C)(C)n1nnnc1C(c1cccs1)N1CCCCC1` (centres undefined), the Potency was inconclusive [inhibitor, single point].
With `CCOC(=O)c1c(NC(=O)CSc2nnnn2-c2ccccc2OCC)sc2c1CC(C)(C)NC2(C)C` the Potency was inconclusive [inhibitor, single point].
For `CCCC(=O)N/C(N)=N/c1nc2ccccc2o1`, the Potency was inconclusive [inhibitor, single point].
With `Cn1c(NC(=O)COc2ccccc2)cc(=O)n(C)c1=O` the Potency was inconclusive [inhibitor, single point].
In the case of `COc1ccccc1CNC(=O)C1(C)CCN1Cc1ccc2ccccc2c1` (centres undefined), the “activity change, negative = growth inhibition” value was inactive: -94.5%.
In the case of `O=C(CN1C(=O)/C(=C/c2ccccc2F)Sc2ccccc21)NCc1cccnc1`, the Potency was inconclusive [inhibitor, single point].
In the case of `COc1ccc(S(=O)(=O)N(CCc2ccccc2)CC(=O)Nc2cc(C)ccc2C)cc1`, the Potency was active: 18.4 µM.
With `CCOC(=O)C1=C(c2ccccc2)Nc2ncnn2C1c1ccc(Cl)cc1` (centres undefined) the Potency was inconclusive [inhibitor, single point].
With `CCCCN(CC)S(=O)(=O)c1ccccc1` the Potency was inconclusive [inhibitor, single point].
For `CCOC(=O)C1=C(O)/C(=C/c2cccc(OC)c2O)N=C1C`, the Potency was inconclusive [inhibitor, single point].
With `CC1(C)Cc2c(C#N)c(NCCN3CCOCC3)nc(-c3ccccc3)c2CO1` the Potency was inconclusive [inhibitor, single point].
With `O=C(CCC1N=C2c3ccccc3N=C(SCC(=O)Nc3ccccc3F)N2C1=O)NCc1cccs1` (centres undefined) the “activity change, negative = growth inhibition” value was inactive: -23.8%.
With `CC(C)(C)c1ccc(SCCc2ccncc2)cc1` the Potency was active: 18.4 µM.
With `O=C(c1ccc(F)cc1)N1CCN(Cc2ccccc2Br)CC1` the activity change, negative = growth inhibition was inconclusive: -2.7% [inhibitor].
With `O=C(C1=C[C@@H](c2ccc(Br)cc2)C[C@@H](OCCCCO)O1)N1CCN(Cc2ccccc2)CC1` the Potency was active: 6.51 µM.
In the case of `CCOC(=O)C1(CCOc2ccccc2)CCN(Cc2cccc(OC)c2O)CC1`, the Potency was inconclusive [inhibitor, single point].
In the case of `O=C1C=C(/C=C/c2ccccc2)C[C@@H](c2ccc(F)cc2)C1`, the Potency was inconclusive [inhibitor, single point].
% is scaled to controls: 0 for no effect and ±100 for the full control effect; potency is read from the fitted curve at half-maximal effect; tags tell the direction and shape of the fitted curve.
